# Laboratory results published in the supplement of paper PMC12067230.
# This is a noisy data set.
# Assay: amyloid nucleation score relative to library mode (yeast Sup35 reporter selection) (log enrichment difference); higher = more amyloid nucleation; sequences are the first 22 residues of the Bri2 peptide extended by up to 12 random residues
# Conditions: random library (experiment): 1;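 active = nucleation score significantly above 0 at FDR 0.05; inactive = not significantly above 0 or absent from output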
# Protocol: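 Random C-terminal extensions of the 22-aa Bri2 peptide by 12 NNK codons; premature stops give shorter extensions. Peptides were fused to the Sup35 nucleation domain in S. cerevisiae [psi-pin-] and selected on -ADE-URA plates for 7 d at 30 °C. The nucleation score is log(output/input), centred to the mode of each of 3 independent libraries (1 input, 3 technical output replicates), with duplicates merged. Sequences absent from the output ('random_non_nuc') were imputed with the library mode value, so they are given as censored (<). Nucleators are scores significantly >0 at FDR 0.05.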
# 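Note: [psi-pin-] Saccharomyces cerevisiae expressing SupN fusions, induced by 100 µM Cu2SO4, selected 7 d at 30 °C without adenine and uracil, scored by deep sequencing of output versus input.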
row,Sequence,amyloid nucleation score
1,EASNCFAIRHFENKFAVETLICCVVSIFPWSVFG,6.13
2,EASNCFAIRHFENKFAVETLICCVWCYCGVMSRI,1.37
3,EASNCFAIRHFENKFAVETLICCVWKGAVQFGSK,7.84
4,EASNCFAIRHFENKFAVETLICCVWSWSACNLVL,5.75
5,EASNCFAIRHFENKFAVETLICCVYA,7.12
6,EASNCFAIRHFENKFAVETLICCVYAGHGSDTAG,8.93
7,EASNCFAIRHFENKFAVETLICCVYAWAGMGCGV,4.2
8,EASNCFAIRHFENKFAVETLICCVYQFRVGVMAV,2.29
9,EASNCFAIRHFENKFAVETLICCVYSNFRAYCS,3.72
10,EASNCFAIRHFENKFAVETLICCVYVA,7.45
11,EASNCFAIRHFENKFAVETLICCVYYSERSRILS,6.15
12,EASNCFAIRHFENKFAVETLICCW,5.13
13,EASNCFAIRHFENKFAVETLICCWADRGARDGCP,8.4
14,EASNCFAIRHFENKFAVETLICCWFLAAGFPGGS,5.85
15,EASNCFAIRHFENKFAVETLICCWGWQKRSLGYE,8
16,EASNCFAIRHFENKFAVETLICCWM,7.66
17,EASNCFAIRHFENKFAVETLICCWMRDGSGSACG,6.45
18,EASNCFAIRHFENKFAVETLICCWRCWITLSRIT,1.22
19,EASNCFAIRHFENKFAVETLICCWRHQMGARGG,inactive
20,EASNCFAIRHFENKFAVETLICCWSDYYWNRGKC,5.95
21,EASNCFAIRHFENKFAVETLICCWVGLCVFMGAH,3.22
22,EASNCFAIRHFENKFAVETLICCWWMAEGVRNRE,7.82
23,EASNCFAIRHFENKFAVETLICCY,inactive
24,EASNCFAIRHFENKFAVETLICCYC,5
25,EASNCFAIRHFENKFAVETLICCYCDFLYFIGDR,6.75

# Same assay, conditions: random library (experiment): 2
row,Sequence,amyloid nucleation score
1,EASNCFAIRHFENKFAVETLICCVW,7.41
2,EASNCFAIRHFENKFAVETLICCVWKRHDVDRYM,8.34
3,EASNCFAIRHFENKFAVETLICCVWVSRFISIRE,2.45
4,EASNCFAIRHFENKFAVETLICCVYCDVMQEYWI,5.59
5,EASNCFAIRHFENKFAVETLICCVYDRWAGMCWF,1.61
6,EASNCFAIRHFENKFAVETLICCVYSIRYYFFRY,inactive
7,EASNCFAIRHFENKFAVETLICCWFYCKEIWTST,0.821
8,EASNCFAIRHFENKFAVETLICCWGWTLDVERGN,8.09
9,EASNCFAIRHFENKFAVETLICCWIGVLVSNSLR,5.82
10,EASNCFAIRHFENKFAVETLICCWKHCVKSRWLS,-0.0583
11,EASNCFAIRHFENKFAVETLICCWRRYLGKSV,inactive
12,EASNCFAIRHFENKFAVETLICCWSICVYFISCV,1.55
13,EASNCFAIRHFENKFAVETLICCWSIDGLYSSRT,7.2
14,EASNCFAIRHFENKFAVETLICCWSSCRTEKGWA,5.82
15,EASNCFAIRHFENKFAVETLICCYCGA,7.95

# Same assay, conditions: random library (experiment): 3
row,Sequence,amyloid nucleation score
1,EASNCFAIRHFENKFAVETLICCWA,6.58
2,EASNCFAIRHFENKFAVETLICCWAAVRMLSTSV,inactive
3,EASNCFAIRHFENKFAVETLICCWCVSSSVVGVQ,9.71
4,EASNCFAIRHFENKFAVETLICCWDHASERIILG,inactive
5,EASNCFAIRHFENKFAVETLICCWEFDTYCRHST,inactive
6,EASNCFAIRHFENKFAVETLICCWMM,8.5
7,EASNCFAIRHFENKFAVETLICCWMVYNLYVVRL,inactive
8,EASNCFAIRHFENKFAVETLICCWWMMINWGQVR,inactive
9,EASNCFAIRHFENKFAVETLICCYAGT,7.63
10,EASNCFAIRHFENKFAVETLICCYANG,6.32
